About 2,200 (0.71%) of roughly 310,000 compounds showed an effect of 50% or more. Effects have a minus sign here. Some of the results follow.
Each molecule was assayed against human ether-à-go-go-related gene (hERG) potassium channel (human, UniProt Q12809) (assay: primary screen, population patch clamp on CHO cells stably expressing hERG).
human ether-à-go-go-related gene (hERG) potassium channel, sequence (Q12809 whole entry, looked up): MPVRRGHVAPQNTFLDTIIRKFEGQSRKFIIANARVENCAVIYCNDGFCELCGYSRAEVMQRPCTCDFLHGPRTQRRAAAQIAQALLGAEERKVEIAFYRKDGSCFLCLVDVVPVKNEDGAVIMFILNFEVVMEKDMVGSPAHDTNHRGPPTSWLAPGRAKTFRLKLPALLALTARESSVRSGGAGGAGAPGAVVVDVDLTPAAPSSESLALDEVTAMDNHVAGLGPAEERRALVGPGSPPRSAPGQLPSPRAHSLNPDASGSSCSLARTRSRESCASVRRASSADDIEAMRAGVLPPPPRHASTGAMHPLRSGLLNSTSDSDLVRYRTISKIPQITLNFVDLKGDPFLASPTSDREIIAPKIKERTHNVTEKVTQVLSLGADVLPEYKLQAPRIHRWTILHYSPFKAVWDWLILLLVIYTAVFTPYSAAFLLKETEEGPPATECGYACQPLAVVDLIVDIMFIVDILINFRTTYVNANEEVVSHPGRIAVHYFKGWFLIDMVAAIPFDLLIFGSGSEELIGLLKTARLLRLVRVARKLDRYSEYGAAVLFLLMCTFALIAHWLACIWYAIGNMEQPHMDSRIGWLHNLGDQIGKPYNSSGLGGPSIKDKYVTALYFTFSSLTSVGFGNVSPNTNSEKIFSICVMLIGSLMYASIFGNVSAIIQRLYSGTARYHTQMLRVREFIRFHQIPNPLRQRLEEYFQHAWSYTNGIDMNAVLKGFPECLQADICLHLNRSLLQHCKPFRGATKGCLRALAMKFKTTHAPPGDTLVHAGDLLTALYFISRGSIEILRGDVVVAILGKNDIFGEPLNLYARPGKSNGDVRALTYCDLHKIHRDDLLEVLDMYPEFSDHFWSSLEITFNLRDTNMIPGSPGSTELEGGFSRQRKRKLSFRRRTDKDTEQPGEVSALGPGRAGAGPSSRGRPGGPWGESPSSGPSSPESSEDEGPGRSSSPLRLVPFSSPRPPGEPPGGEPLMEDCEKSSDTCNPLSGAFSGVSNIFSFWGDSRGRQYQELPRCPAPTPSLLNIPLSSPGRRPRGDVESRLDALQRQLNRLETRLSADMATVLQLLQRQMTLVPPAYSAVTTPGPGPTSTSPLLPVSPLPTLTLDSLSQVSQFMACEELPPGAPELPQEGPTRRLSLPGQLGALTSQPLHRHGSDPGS

SMILES	hERG current change (%, negative = inhibition) at 1uM [%]
CCCNC(=O)NC(=O)CSc1nnc(C)n1N	14.1
COc1ccc(CCN2CC(C(=O)N(C)Cc3ccccc3OC)CCC2=O)cc1 (centres unmarked)	26.7
Nc1cc(-c2ccncc2)c[nH]c1=O	9.48
O=C(N/N=C/C(Br)=C/c1ccccc1)c1cc(-c2ccco2)[nH]n1	9.32
CCOC(=O)N1CCN(C(=O)COc2ccc(Cl)c(C)c2)CC1	6.49
O=C(CCCOc1ccc(Cl)cc1Cl)Nc1nnc(C2CC2)s1	12.3
COc1cc(OC)c(NC(=S)Nc2cc(Cl)cc(Cl)c2)cc1Cl	11.4
CCCCCCn1cc(C(=O)OCC)c(=O)c2cc(F)c(F)cc21	-21
Cc1ccc2nc3sc(C(=O)Nc4c(C)[nH]c(=O)[nH]c4=O)c(N)c3cc2c1	11.6
COc1ccc(-c2[nH]ncc2CN(C)Cc2nonc2C)c(OC)c1	21.9
CCOC(=O)C1=C(C)Nc2nc(SCC)[nH]c(=O)c2C1c1ccncc1 (centres unmarked)	6.82
CC(C)NC(=O)NC(=O)COC(=O)CCOc1ccccc1	10.5
CCCOc1ccc(/C=N/NC(=O)CSCc2ccc([N+](=O)[O-])cc2)cc1OCC	4.57
COCCNC(=O)COc1cc(=O)n(C)c2ccccc12	0.268
CCOP(=O)(c1ccccc1)C(O)c1ccc([N+](=O)[O-])cc1 (centres unmarked)	14.9
Cc1cccc(-n2nc(CC#N)c(C#N)c2N)c1	16.3
CCN(CC)C(=O)C1CCCN(Cc2ccccc2C(F)(F)F)C1 (centres unmarked)	-2.75
CS/C(=C/[N+](=O)[O-])Nc1cccc2c1C(C)CC2(C)C (centres unmarked)	1.56
CCNS(=O)(=O)c1ccc(Br)c(OC)c1	10.4
Cn1c(NC(=O)c2ccccc2)c(-c2cccs2)c(=O)c2ccccc21	15.7
Cn1ncc(Cl)c1C(=O)NNC(=O)Nc1cccc2ccccc12	11.5
CCOC(=O)N1CCC(N(CCN(C)C)C(=S)Nc2ccccc2OCC)CC1	5.48
COc1ccc(CNC(=O)CNS(=O)(=O)c2cccc(C#N)c2)cc1OC	8.72
CN(C)NC(=S)NC1(C)CCS(=O)(=O)C1 (centres unmarked)	9.47

SMILES	hERG current change (%, negative = inhibition) at 1uM [%]
CCC(C)[C@H]1CN=C(N)N1CCc1cccc(F)c1 (some centres unmarked)	-2.41
CN(C)C(=O)CSc1nnc(-c2ccc(S(=O)(=O)N3CCCC3)cc2)n1C	17.3
CCOc1cc(/C=C2\CCCc3c2nc2ccccc2c3C(=O)O)ccc1OC	12.8
Cc1ccc(C2=CSC3=NNC4(CCCCC4)NN23)cc1	12.7
CC(=O)Nc1sc(N)nc1-c1ccccc1	8.87
CCc1cccc2cc3c(N)c(C(=O)Nc4ccc(S(=O)(=O)N5CCCC5)cc4)sc3nc12	10.5
COc1ccc(NC(=O)CCc2nc(-c3ccccc3F)no2)cc1	2.69
CCn1c(COc2ccc(Cl)cc2)nnc1SCC(=O)Nc1ccc2c(c1)OCCO2	18.4
CC(/C=C1\SC(=S)N(CC(=O)O)C1=O)=C\c1ccccc1	12.5
CC(C)C(c1nnnn1C1CCCC1)N1CCOCC1 (centres unmarked)	12
CCOc1ccc(-c2nnc(SCC(=O)N3CCCC3)o2)cc1	7.9
Cc1nn2c(N3CCN(C)CC3)c3c(nc2c1-c1ccccc1)CCCC3	-1.53
Cc1ccc(NC(=O)COc2ncnc3sccc23)cc1S(=O)(=O)N(C)C	-1.17
O=C(Nc1ccc(Br)cc1Br)c1cccc2c1C(=O)N(C1CCCCC1)C2	19.3
Cc1cc(OCC(=O)N2CCC(C(=O)O)CC2)c2c3c(c(=O)oc2c1)CCC3	-6.23
CCOC(=O)C1CCN(S(=O)(=O)c2ccc3oc(=O)ccc3c2)CC1	-78.2
COc1cccc(C(c2nnnn2CC2CCCO2)N2CCN(C(=O)c3ccco3)CC2)c1OC.Cl (centres unmarked)	8.64
CC(C)CCn1nnnc1CN1CCN(C(c2ccccc2)c2ccccc2)CC1	15.2
COCCNc1nc(C)cc(-c2cc(C(=O)NCc3ccccc3)on2)n1	7
S=C(NC1CCCCC1)N1CCN(c2ccccn2)CC1	3.76
Cc1oc(-c2ccc3c(c2)OCCO3)cc1C(=O)O	-5.7
COC(=O)CSc1nnc(COc2ccc3ccccc3c2)o1	17.6
CN(C)c1ccc(C2CC(=O)NC3=C2C(=O)CC(C)(C)C3)cc1 (centres unmarked)	9.28

From publication PMC4336329 (PLoS ONE, 2015)
